From ChEMBL document CHEMBL4888484, “Replenishing the malaria drug discovery pipeline: Screening and hit evaluation of the MMV Hit Generation Library 1 (HGL1) against asexual blood stage Plasmodium falciparum ,using a nano luciferase reporter read-out” (2022)
Out of some 150,000 compounds screened, about 540 (0.36%) showed an effect of 50% or more. The list shows a part of the results.

Each compound was assayed on Plasmodium falciparum (assay: Primary screen in NF54 nanoGlo assay, in single point, at 2uM, 72h; a lower Z score goes with more inhibition). Details: timepoint 72 hour.
Type: functional, Erythrocyte

| SMILES | % Inhibition [%] | Z score |
| --- | --- | --- |
| O=C(NC(c1ccccc1)C1CCCO1)c1ccnc(C(=O)O)c1 (stereo not given) | -4 | 0.64 |
| CCNC(=O)COc1c(F)cccc1OC | 7 | -0.96 |
| CC(C)c1nnc([C@H](C)NC(=O)c2cc(C3CC3)[nH]n2)o1 | 11 | -1.41 |
| O=C(NC1CCCC1)[C@H]1CCCN(S(=O)(=O)c2ccccc2)CCc2nnc(-c3cccnc3)n2CC1 | 3 | -0.37 |
| COc1ccc(NC(=O)c2ccc(NC(=O)CCc3cccs3)cc2)cc1 | -16 | 2.19 |
| COc1ccc(CCNC(=O)c2ccc(Cn3c(=O)c4ccccc4n(CC(=O)Nc4cccc(F)c4)c3=O)cc2)cc1OC | -14 | 2.06 |
| COc1cccc(N2CC(=O)N=C2Nc2nc(C)cc(C)n2)c1 | 10 | -1.31 |
| CCCc1cc(C(=O)NCc2cc3n(n2)CCCN(CCC)C3)cs1 | -3 | 0.46 |
| C#CCCC1(CCC(=O)N2CCC[C@H]2c2nncn2C)N=N1 | -9 | 1.12 |
| C=CCN=C(NCC=C)NCc1nc([C@H](C)OCC)no1 | 5 | -0.62 |
| O=C(O)C1CC=CCC1C(=O)N1CCCc2ccccc21 (stereo not given) | -10 | 1.24 |
| CCc1ccc(CNC(=O)Nc2cccnn2)s1 | 1 | -0.24 |
| O=C(Nc1ccccc1F)[C@H]1CCCN(CC(F)F)C1 | -9 | 1.27 |
| C#CCCC1(CCC(=O)N2CCCC[C@H]2c2ccco2)N=N1 | -6 | 0.92 |
| C[C@H](Nc1ncccc1C#N)c1cccc(-n2cccn2)c1 | -11 | 1.61 |
| CCOC(=O)c1ccc(Nc2nnc(Cc3csc(N)n3)s2)cc1 | -4 | 0.52 |
| COCCCN(Cc1csc(COc2cccc(C)c2)n1)C(=O)c1ccco1 | 1 | -0.19 |
| CC(=O)NCCOc1cc(Cl)ccc1Cl | -14 | 1.95 |
| CC(C)C[C@H](NC(=O)c1ccc(N2CCCCS2(=O)=O)cc1Cl)c1nc2ccccc2n1C | 5 | -0.71 |
| CC(C)CNC(=O)CN[C@@](C)(CO)C1CCCCC1 | -14 | 1.42 |
| N#Cc1ccnc(C=Cc2cn(-c3ccc(F)cc3Cl)nn2)n1 | -14 | 1.68 |
| CCN(CC)C(=O)[C@H](C)Nc1cnn(C(C)(C)C)c1 | -7 | 0.75 |

| SMILES | % Inhibition [%] | Z score |
| --- | --- | --- |
| CCOC(=O)c1sc2nc(-c3ccc(O)cc3)c(NCc3ccc(F)cc3)n2c1C | -3 | 0.34 |
| Cc1nc(NC(=O)N[C@H]2CCCNC2=O)sc1C | -3 | 0.47 |
| O=C(Nc1nc2cc3c(cc2[nH]1)OCO3)C1C2CCCC21 (stereo not given) | 11 | -1.4 |
| CCOC(=O)Nc1ccc(Br)c(C)c1 | -13 | 1.15 |
| CCC(=O)Nc1ccc2c(c1)CN(C(=O)Cc1ccc(C)cc1)[C@H](C(=O)N1CCCC1)C2 | -6 | 0.9 |
| COCCCN(C)C(=O)N1CCn2c(Cc3cccc(Br)c3)nnc2C1 | -1 | 0.14 |
| CCC[C@H]1CN(CC(=O)Nc2ccc(C)cn2)C[C@@H]1N(C)C | 0 | 0.02 |
| Cc1ccc(NC(=O)N2C[C@H](c3nnc(-c4ccncc4)o3)C3(CCOCC3)C2)cc1C | -1 | 0.27 |
| C[C@@H](C(=O)NCC1CCOCC1)n1nc2c(cc1=O)CCC2 | 22 | -2.85 |
| CCN(C(=O)Cn1c(C)cc(C)c(-c2nc(-c3ccc(Cl)cc3)no2)c1=O)c1cccc(C)c1 | -1 | 0.05 |
| OC1CN(c2ncnc3scc(-c4ccccc4)c23)C1 | 9 | -1.03 |
| CC(C)c1nnc([C@H]2CN(C(=O)c3ccc(F)cc3F)CC23CCN(C)CC3)o1 | 2 | -0.34 |
| O=C(Nc1ccc(-c2ccno2)cc1)C1CCN(S(=O)(=O)c2ccc3c(c2)CCCN3C(=O)C2CCC2)CC1 | -29 | 5.6 |
| Cc1c(-c2cnn(C)c2)nc(N)c(C#N)c1-c1ccc(N(C)C)cc1 | 5 | -0.93 |
| COc1cc(OC)cc(C(=O)N2CCc3nc(-c4ccccc4)nc(N4CC(C)OC(C)C4)c3C2)c1 (stereo not given) | 18 | -1.69 |
| Cc1coc(-c2ccc(C)c(NC(=O)CCN3C(=O)CCC3=O)c2)n1 | 40 | -5.44 |
| CCN(Cc1cc(Br)ccc1O)C(=O)CCc1c(C)[nH]c(=O)c(C#N)c1C | -2 | 0.45 |
| CCc1nnc(CN2CCN(CC3CC3)c3ccccc32)o1 | -7 | 0.83 |
| O=S(=O)(C1CN(c2ccc(C(F)(F)F)nn2)C1)N1CCOCC1 | -4 | 0.44 |
| CCc1nccn1CCCNC(=O)c1ncc(F)cc1F | -6 | 1.02 |
| O=S(=O)(c1cnc2ccccc2c1)N1CCOC2(CCCCCC2)C1 | -2 | 0.35 |
| COc1ccc(Br)cc1CNc1ccc(-c2nc3ccc(C)cc3s2)cc1 | 19 | -2.47 |

| SMILES | % Inhibition [%] | Z score |
| --- | --- | --- |
| O=C(CCn1cnc2ccccc2c1=O)c1ccc2c(c1)OCCO2 | -6 | 0.79 |
| CCn1ncnc1CNC(=O)C1C2CCCC21 (stereo not given) | 30 | -3.43 |
| CN(CCN(C)S(=O)(=O)N1CCCC1)C1CCCC1 | -4 | 0.68 |
| O=C(c1cnns1)N1CCC(CC(F)(F)F)CC1 | -1 | 0.12 |
| O=C(COc1cccc(Br)c1)N1CCC[C@H](c2nc3ccccc3s2)C1 | -1 | 0.06 |
| Cc1ncoc1C(=O)N1CC(=O)N(CC(C)C)C[C@H](OCc2cccnc2)C1 | 4 | -0.5 |
| CCN1C[C@H](NS(=O)(=O)c2ccccc2F)[C@@H](OC)C1 | -7 | 0.95 |
| CCn1ccc2ccc(CNCC3(COC)CCC3)cc21 | 11 | -1.58 |
| CCCNc1nc(C)c(C(=O)OCC)s1 | -38 | 4.45 |
| Cc1nnc(Cn2nnc(C(=O)N3CCC(Cc4ccccc4)CC3)c2C)o1 | 4 | -0.55 |
| Cc1nc(CN2C(=O)COc3cc(S(=O)(=O)N4CCN(C)CC4)c(Cl)cc32)no1 | -11 | 1.29 |
| Cc1nnnn1CCC(=O)N(C)Cc1cc2ccccc2s1 | -10 | 1.17 |
| CC(C)(C(=O)N1CCC[C@H](Cn2cncn2)C1)C1CCOCC1 | 6 | -0.93 |
| CCC1(CC)CCN(C(=O)c2ccc(-n3cnnn3)cc2)CC1 | -16 | 1.96 |
| CN=C(NCc1cnn(C)c1)NC[C@H](C)Oc1ccc(Cl)cc1 | -9 | 1.4 |
| Oc1ccc(CN2CCC(OC[C@H]3CCOC3)CC2)cc1 | -5 | 0.66 |
| CC1CCCC(NC(=O)c2cnn(-c3ccc(F)cc3)n2)C1C (stereo not given) | -1 | 0.18 |
| Cc1csc(NC(=O)[C@@H](N)CC2CCCCC2)n1 | -5 | 0.51 |
| CCOc1ccc(-c2nc(Cn3ccnn3)co2)cc1 | -6 | 1.08 |
| O=S(=O)(Oc1cccc(F)c1)c1cnccc1C(F)(F)F | 1 | -0.09 |
| COc1cccc(OC)c1OCC(O)CNC(c1ccccc1)C1CCCCC1 (stereo not given) | -8 | 1.05 |
| Cc1nn(C)c2nccc(NC[C@H]3CCCO3)c12 | -12 | 2.19 |

| SMILES | % Inhibition [%] | Z score |
| --- | --- | --- |
| COc1ccccc1CCN1C(=O)[C@H](CC(=O)Nc2cccc3[nH]ccc23)N=C1O | 7 | -0.73 |
| CC[C@H](C)C(=O)NCC(=O)N1CCCC1 | -12 | 1.51 |
| O=C(N[C@H]1[C@H](O)[C@H](O)C[C@@H]1c1ccccc1)c1ccccc1 | -3 | 0.43 |
| O=C(CCc1ccccc1)C(=O)N1C[C@@H]2CC[C@H]1CN(Cc1ccccn1)C2 | 3 | -0.54 |
| CC/C=C/CC(=O)N1C[C@@H]2C(=O)N(C)C(=O)[C@@H]2C1 | -10 | 1.47 |
| OCCn1nc(Cc2cccs2)nc1CCN1CCCCCCC1 | -16 | 2.13 |
| CCc1cc(C(=O)N2CCCC[C@@H]2Cc2ccccc2F)n(C)n1 | -5 | 0.49 |
| O=C([C@@H]1CC(c2cc(F)ccc2F)=NO1)N1CCOCC1 | -10 | 1.55 |
| Cc1cc(NC(=O)NCc2nnc3n2CCOCC3)nn1-c1ccccc1 | 0 | 0.06 |
| CC(C)[C@H]1CC[C@H](C(=O)Nc2ncccn2)CC1 | -5 | 0.84 |
| Cc1cc(F)ccc1NC(=O)CC(F)(F)F | -8 | 0.99 |
| Cc1cccc(-c2nnc3c4ccc(Cl)cc4nc(N4CCN(C(=O)c5ccccc5)CC4)n23)c1 | -15 | 1.65 |
| Cc1ccc(C)c(-c2n[nH]cc2CN2CCN(C)[C@@H]3CS(=O)(=O)C[C@@H]32)c1 | 3 | -0.45 |
| O=C1[C@@H]2CN(C3CCCC3)CCN2C(=O)N1c1ccccc1 | -15 | 1.23 |
| CN(C)c1ccc(CNC(=O)C2CCN(c3cncnc3N3CCOCC3)CC2)cc1 | -3 | 0.64 |
| C[C@@H]1CN(C(=O)c2cccc(OC3CCN(S(=O)(=O)N(C)C)CC3)c2)C[C@H](C)O1 | -5 | 0.87 |
| CCCc1c(C(=O)N(C)CCn2cnnc2)cnn1C1CCCC1 | -3 | 0.49 |
| Cc1ccc(-c2ncc(CN3CCCC4(C3)OCCO4)s2)o1 | -5 | 0.88 |
| CN1C(=O)C2(CCN(C(=O)c3ccc(O)cn3)CC2)c2ccccc21 | -4 | 0.65 |
